# Reference: PubChem BioAssay AID485281 (National Center for Advancing Translational Sciences (NCATS), 2010)
# Out of some 350,000 compounds screened, about 260 (0.074%) were called active. Inconclusive results, whose numbers are uncertain, are shown with a selection of clear calls. Calls come from the whole dose curve; as a rule, active = well fitted inhibition curve with a large enough effect; inconclusive = small, poorly fitted or top-dose-only effect; inactive = no such curve, though single readings can be large or run the other way. Potencies beside an inconclusive call are fits to weak or partial responses and may not hold up.
# Molecular target: Ferritin light chain (Equus caballus) (UniProt P02791)
# Chain of UniProt P02791 (P02791 whole entry, looked up): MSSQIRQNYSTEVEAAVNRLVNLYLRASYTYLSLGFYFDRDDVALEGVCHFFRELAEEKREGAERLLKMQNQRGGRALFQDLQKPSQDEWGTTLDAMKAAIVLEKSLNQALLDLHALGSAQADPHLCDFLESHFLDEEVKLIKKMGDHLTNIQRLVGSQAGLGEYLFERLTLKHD
# Assay: qHTS Assay for Identification of Novel General Anesthetics; note: nearly all actives have a fitted effect of over 20% in size
# Conditions: apoferritin/1-aminoanthracene competitive binding, fluorescence; series mostly up to 77.5 µM
# Outline: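 Concentration-response curves derived by four-parameter Hill fitting of normalized fluorescence, where compounds displaced 1-AMA from 10 uM horse apoferritin following a brief 10 min room-temperature incubation; propofol titration acted as positive control.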
# Potency is the fitted concentration of half-maximal effect; tags give direction and shape of the fitted curve.
row,SMILES,Potency
1,COc1ccc(NS(=O)(=O)c2ccc(N)c(C(=O)O)c2)cc1,inactive
2,CC(C)CNC(=O)c1ccc(COc2ccc(Cl)cc2Cl)o1,"inconclusive: 14.1 µM [inhibitor, partial curve]"
3,CCOC(=O)c1[nH]ncc1CN1CCN(Cc2ccc(C)cc2)C(CCO)C1 (stereo unspecified),inactive
4,COc1ccc(Nc2nc(-c3sc(NC(C)=O)nc3C)cs2)cc1,"inconclusive: 56.2 µM [inhibitor, single point]"
5,Cc1cc(C)cc(NC(=O)Cn2nc(N3CCN(c4ccccc4)CC3)ccc2=O)c1,"inconclusive: 17.8 µM [inhibitor, partial curve]"
6,CC(=O)Nc1ccc(S(=O)(=O)N2CCN(c3nc(NC4CCCC4)c4ccccc4n3)CC2)cc1,inactive
7,COC(=O)c1nn(-c2cccc(C)c2)c2nnc(Cc3ccccc3)c(=O)n12,inactive
8,COc1ccc(-n2c(NC(=O)c3ccco3)c(C#N)c3nc4ccccc4nc32)cc1,inactive
9,COc1cc(NS(=O)(=O)c2cccc3nsnc23)cc(OC)c1,"inconclusive: 31.6 µM [inhibitor, partial curve]"
10,CCN(CC)C(=O)c1sc2c(c1C)c(=O)n(CCc1ccccc1)c(=O)n2Cc1ccc(C)cc1,inactive
11,COc1ccc(CCNC(=O)Cc2ccc(OCc3ccccc3)c(OC)c2[N+](=O)[O-])cc1OCc1ccccc1,active: 35.5 µM
12,CCOC(=O)c1ccc(N)cc1,inactive
13,COc1ccc(-n2ncc3c(NCc4cccs4)ncnc32)cc1,"inconclusive: 20 µM [inhibitor, partial curve]"
14,Cc1ccc(Oc2ccc(C(F)(F)F)cc2[N+](=O)[O-])c([N+](=O)[O-])n1,inactive
15,CCn1ccc2c(OCC(=O)Nc3ccc(C)c(Cl)c3)cccc2c1=O,"inconclusive: 56.2 µM [inhibitor, single point]"
16,O=[N+]([O-])c1ccc(Oc2ccc(F)cc2)c2ccncc12,"inconclusive: 39.8 µM [inhibitor, single point]"
17,Cc1ccc(-n2nc3c(N4CCC(C(=O)NCc5ccccc5C)CC4)nnc(C)c3c2C)cc1,"inconclusive: 14.1 µM [inhibitor, partial curve]"
18,CCN(CC)c1ccc(C=N/C(C#N)=C(\N)C#N)cc1,"inconclusive: 14.1 µM [inhibitor, partial curve]"
19,COc1ccc(-c2cn3cc(Cl)ccc3n2)cc1OC,inactive
20,COc1cc(C(=O)NC(c2ccccc2Cl)c2cc(Cl)c3cccnc3c2O)cc(OC)c1OC (stereo unspecified),"inconclusive: 14.1 µM [inhibitor, partial curve]"
21,Cc1cc(C)c(OCC(=O)OCC(=O)NC2CCCCCCC2)c(C)c1,"inconclusive: 35.5 µM [inhibitor, partial curve]"
